PubChem BioAssay AID602310 (National Center for Advancing Translational Sciences (NCATS), 2012)
Screen size: about 410,000 compounds; about 310 (0.076%) were called active. The shares of active, inactive and inconclusive entries below differ from those in the screen. Calls come from the whole dose curve; as a rule, active = well fitted curve in the direction sought with a large enough effect; inconclusive = small, poorly fitted or top-dose-only effect; inactive = flat fitted curve, though single readings scatter. Potencies of inconclusive entries are doubtful fits and often do not repeat.

Target: DNA dC->dU-editing enzyme APOBEC-3G (Homo sapiens) (UniProt Q9HC16)
Assay: qHTS for Inhibitors of Vif-A3G Interactions: qHTS; note: nearly all actives have a fitted effect of over 60% in size
Details: HeLa A3G-eYFP + Vif (tagged APOBEC3G with the HIV-1 protein that degrades it), YFP fluorescence, overnight; series mostly up to 46.1 µM
In short: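 HeLa cells stably expressing Vif and C-terminally eYFP-tagged A3G, seeded overnight at 37 deg C, then exposed to compound by pintool overnight at 37 deg C. Rise in yellow fluorescence (Ex 488/Em 500-530, Acumen) marks blocked Vif-driven A3G degradation.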
Potency is the fitted concentration of half-maximal effect; tags give direction and shape of the fitted curve.

Sequence of UniProt Q9HC16 (Q9HC16 whole entry, looked up): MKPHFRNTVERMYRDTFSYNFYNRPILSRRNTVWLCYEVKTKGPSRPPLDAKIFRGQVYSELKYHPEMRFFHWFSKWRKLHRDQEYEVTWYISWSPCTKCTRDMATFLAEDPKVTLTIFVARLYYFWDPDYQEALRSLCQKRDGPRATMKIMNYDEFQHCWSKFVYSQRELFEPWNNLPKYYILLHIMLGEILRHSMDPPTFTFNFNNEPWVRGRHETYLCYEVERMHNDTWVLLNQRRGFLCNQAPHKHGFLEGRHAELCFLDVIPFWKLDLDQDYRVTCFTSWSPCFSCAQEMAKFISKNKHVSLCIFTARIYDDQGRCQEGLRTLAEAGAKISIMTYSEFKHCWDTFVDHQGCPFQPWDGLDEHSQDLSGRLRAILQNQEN

| Compound | Potency |
| --- | --- |
| C=CCn1c(C)cc(C(=O)CN2NS(=O)(=O)c3ccccc3C2=O)c1C | inconclusive: 28.2 µM [inhibitor, single point] |
| O=C(C[n+]1cc(Br)cc2ccccc21)c1ccc(Cl)cc1 | inactive |
| O=C1NC(c2ccc(O)cc2)Nc2ccccc21 (centres undefined) | inconclusive: 35.5 µM [inhibitor, single point] |
| CCOC(=O)Nc1sc2nc(C)cc(C)c2c1-n1cccc1 | inconclusive: 12.6 µM [inhibitor, single point] |
| Cc1ccc(NC(=O)c2ccc(S(=O)(=O)NCc3ccco3)cc2)nc1 | inconclusive: 12.6 µM [inhibitor, single point] |
| Fc1cccc(F)c1-n1c(CN2CCCCC2)csc1=S | inconclusive: 7.08 µM [inhibitor, partial curve, poor fit] |
| O=C1CC(c2cc([N+](=O)[O-])ccc2Cl)c2c(ccc3ccccc23)N1 (centres undefined) | inconclusive: 6.31 µM [inhibitor, full curve] |
| COc1cccc(N2CCN(C(=O)CN3CCSc4ccccc43)CC2)c1 | inactive |
| Cc1c(CCOC(=O)C2C3CC4CC(C3)CC2C4)sc[n+]1CC(=O)c1ccc(Br)cc1 (centres undefined) | inactive |
| COc1cc(C2C(C(=O)c3cc4ccccc4o3)=C(O)C(=O)N2c2cc(C)on2)cc(OC)c1OC (centres undefined) | inactive |
| COc1cc(/C=c2\s/c(=C\C(=O)C(C)(C)C)[nH]c2=O)cc(OC)c1OC | inactive |
| CSc1ccc(Cn2c(C)c(C(=O)NCc3cccc(C)c3)sc2=O)cc1 | inactive |
| Cc1ccc(Nc2sc(C(=O)c3ccccc3)c(N)c2C(N)=O)cc1 | inconclusive: 31.6 µM [inhibitor, single point] |
| CN(C)c1ccc(/C=C2/CCc3ccccc32)cc1 | inactive |
| COC(=O)c1c(-c2ccc3ccccc3c2)csc1NC(=O)Cc1ccc(OC)c(OC)c1 | inconclusive: 5.01 µM [inhibitor, full curve, poor fit] |
| COc1ccc(NC(=O)C2(C)Cc3c(-c4cccc(C(N)=O)c4)ccnc3O2)cc1 (centres undefined) | inconclusive: 5.01 µM [inhibitor, full curve] |
| COc1cc(CNCCSc2nnnn2C)ccc1OCc1ccc(Cl)cc1Cl | inconclusive: 25.1 µM [inhibitor, partial curve, poor fit] |
| COc1ccc2nc(C(c3ccc(C)cc3)n3c(-c4ccccc4Br)nc4ccccc43)[nH]c2c1 (centres undefined) | inconclusive: 35.5 µM [inhibitor, single point] |
| O=C1[C@@H](Oc2ccccc2)[C@@H](c2cccnc2)N1c1ccccc1 | inconclusive: 11.2 µM [inhibitor, partial curve, poor fit] |
| CC(C)(C)c1cc(S(=O)(=O)CCc2ccccn2)cc(C(C)(C)C)c1F | inactive |
| On1onc2c3cc(-c4ccccc4)nc3ccc21 | active: 3.55 µM |
| COc1ccccc1C(=O)NC(=S)Nc1ccc(NC(=O)c2ccco2)cc1 | inconclusive: 11.2 µM [inhibitor, partial curve, poor fit] |

| Compound | Potency |
| --- | --- |
| CCc1sc(-c2cc3ccc(O)cc3oc2=O)nc1-c1ccc(C)cc1 | inconclusive: 2.51 µM [inhibitor, full curve, poor fit] |
| Cc1ccccc1C(=O)N1CCN(c2ccc(NC(=O)c3ccc([N+](=O)[O-])o3)cc2)CC1 | inconclusive: 5.62 µM [inhibitor, single point] |
| Cc1ccc(NC(=O)CSc2nc(-c3ccco3)nc3cc(=O)[nH]n23)cc1 | inactive |
| O=C(OCn1ncc(Cl)c(Cl)c1=O)c1cccc(C(F)(F)F)c1 | inconclusive: 10 µM [inhibitor, partial curve] |
| Cc1nc2[nH]c(=S)[nH]c(=O)c2nc1C | inactive |
| COc1cccc(C=Cc2nccc3ccccc23)c1OC | inconclusive: 17.8 µM [inhibitor, single point] |
| COc1ccc(CC(=O)N2CCc3cc(OC)c(OC)cc3C2COc2ccc3c(C)cc(=O)oc3c2)cc1OC (centres undefined) | inactive |
| Cc1ccc(C2=NN(C(=O)c3ccco3)C(O)(C(F)(F)F)C2)cc1 (centres undefined) | inactive |
| Cc1cccc(-n2cc[nH]c2=S)c1C | inactive |
| COc1ccc(C2CN=NC23CCc2ccccc2C3=O)cc1 (centres undefined) | inconclusive: 2.82 µM [inhibitor, full curve, poor fit] |
| CCOC(=O)c1c(N/N=C/c2cccnc2)n[nH]c1C | inconclusive: 8.91 µM [inhibitor, partial curve, poor fit] |
| Cc1nn(Cc2ccc(Cl)cc2)c(C)c1NC(=O)c1cc(-c2ccc3c(c2)OCO3)on1 | inconclusive: 25.1 µM [inhibitor, single point] |
| COc1ccc(CNC(=O)C2CCCN(c3nnc(C)c4c(C)n(-c5ccc(C)cc5)nc34)C2)cc1 (centres undefined) | inconclusive: 28.2 µM [inhibitor, single point] |
| CC(=O)Nc1ccc(NC(=O)c2nc(S(=O)(=O)Cc3ccccc3)ncc2Cl)cc1 | inconclusive: 22.4 µM [inhibitor, single point] |
| CS(=O)(=O)c1ccc(C(=O)OCC(=O)NCC2CCCO2)cc1[N+](=O)[O-] (centres undefined) | inactive |
| C#CCOCCOCCOCCNc1nc(N2CCN(C(=O)CCCCCCCCCCNC(=O)[C@H](CCCCN)n3cc(CCCC(=O)O)nn3)CC2)nc(N2CCN(C(=O)CCCCCCCCCCNC(=O)[C@@H]([C@H](C)O)n3cc(C)nn3)CC2)n1 | inactive |
| CN(C(=O)c1cc(COc2c(F)cccc2F)on1)C1CCOC1 (centres undefined) | inactive |
| COc1cccc(Cn2c(-c3nonc3NC(C)=O)nc3ccccc32)c1 | inconclusive: 7.08 µM [inhibitor, partial curve, poor fit] |
| COc1cc(/C=C2\SC(=Nc3cccnc3)NC2=O)cc(OC)c1OC | inconclusive: 20 µM [inhibitor, single point] |
| CCc1ccc(CN(C)CC(=O)Nc2ccc3c(c2)CCC3)cc1 | inactive |
| O=C(N/N=C/c1c[nH]c2ccccc12)c1sc2ccccc2c1Cl | inactive |
| O=C(C#Cc1ccccc1)Nc1cccc(F)c1 | inconclusive: 22.4 µM [inhibitor, single point] |
